Test system: human pancreatic cell line derived xenograft model HPAF-II
Test: Pancreatic cell line derived xenograft model HPAF-II
Assay type: in vivo, mouse
Settings: single i.v. treatment
Protocol: 5×10^6 HPAF-II cells were injected subcutaneously into the right flank of six to eight weeks old immunodeficient female mice (Hsd:Athymic Nude-Foxn1nu, Envigo). […] Tumor length (L) and width (W) were measured with calipers and tumor volumes were calculated using L×(W^2)/2.
Efficacy of ADC1-M and ADC3-M in comparison to ADC8 was evaluated in the human pancreatic adenocarcinoma, cell line-derived xenograft model HPAF-II (ATCC, CRL-1997). Six to eight weeks old immunodeficient female mice (Hsd:Athymic Nude-Foxn1nu, Envigo) were injected subcutaneously in the right flank with 5×10^6 HPAF-II cells. When tumors reached a mean volume of 150 mm^3, 10 mice/group were treated once intravenously with ADC1-M (1 mg/kg or 6 mg/kg) or with ADC3-M (1 mg/kg or 6 mg/kg) or with ADC8 (1 mg/kg or 6 mg/kg). Tumor length (L) and width (W) were measured with calipers and tumor volumes were calculated using L×W^2/2.

B1: ADC8 (conjugate)
heavy: DIQLTQSPSSLSASVGDRVTITCKASQDVGTSVAWYQQKPGKAPKLLIYWTSTRHTGVPSRFSGSGSGTDFTFTISSLQPEDIATYYCQQYSLYRSFGQGTKVEIKRTVAAPSVFIFPPSDEQLKSGTASVVCLLNNFYPREAKVQWKVDNALQSGNSQESVTEQDSKDSTYSLSSTLTLSKADYEKHKVYACEVTHQGLSSPVTKSFNRGECEVQLVESGGGVVQPGRSLRLSCSASGFDFTTYWMSWVRQAPGKGLEWIGEIHPDSSTINYAPSLKDRFTISRDNAKNTLFLQMDSLRPEDTGVYFCASLYFGFPWFAYWGQGTPVTVSSASTKGPSVFPLAPSSKSTSGGTAALGCLVKDYFPEPVTVSWNSGALTSGVHTFPAVLQSSGLYSLSSVVTVPSSSLGTQTYICNVNHKPSNTKVDKRV[letters of human IgG1 Fc left out]
light: DIQLTQSPSSLSASVGDRVTITCKASQDVGTSVAWYQQKPGKAPKLLIYWTSTRHTGVPSRFSGSGSGTDFTFTISSLQPEDIATYYCQQYSLYRSFGQGTKVEIKRTVAAPSVFIFPPSDEQLKSGTASVVCLLNNFYPREAKVQWKVDNALQSGNSQESVTEQDSKDSTYSLSSTLTLSKADYEKHKVYACEVTHQGLSSPVTKSFNRGEC
anti-tumor effect (1 mg/kg): no significant anti-tumor effect
anti-tumor effect (6 mg/kg): no significant anti-tumor effect

Source: patent US20250179210A1, “ANTI-CEACAM5 ANTIBODIES AND CONJUGATES AND USES THEREOF” (Merck Patent GmbH, priority 2022, published 2025)
